{"source": "the supplement of paper PMC3334620", "note": "The full ranking holds about 33,000 sequences; the median of “E-score (-0.5 to 0.5)” is about -0.054, and the highest 2% start at about 0.39. Some of the results follow."}
{"biological_target": "Ylr278c (UniProt Q05854)", "experiment": "PBM E-score (8-mer binding enrichment) (E-score (-0.5 to 0.5)); higher = stronger / more preferred TF binding; most listed sequences are background and not binding sites", "settings": "protein concentration: 200 nM; construct: GST-DNA-binding domain", "method_in_brief": "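The E-score, a modified Wilcoxon-Mann-Whitney statistic, was computed by the Universal PBM Analysis Suite for every ungapped eight-base word pooled with its reverse complement. Scans behind it were normalised with masliner after bound GST-tagged yeast transcription factors were detected with fluorescent anti-GST. The proteins, at about 100-200 nM, had been applied to universal all-10-mer Agilent arrays made double-stranded by primer extension.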"}
{"sequence": "CCGCTCGA", "PBM E-score": 0.143}
{"sequence": "CCTGTCTA", "PBM E-score": -0.128}
{"sequence": "AATGGACA", "PBM E-score": -0.215}
{"sequence": "TGTTATAA", "PBM E-score": 0.0402}
{"sequence": "GCGGAGAA", "PBM E-score": 0.436}
{"sequence": "ATTCACGG", "PBM E-score": 0.248}
{"sequence": "GTTAAGAA", "PBM E-score": -0.0964}
{"sequence": "AGCTAGTG", "PBM E-score": -0.312}
{"sequence": "CCTCGTGA", "PBM E-score": -0.12}
{"sequence": "AACCCAAT", "PBM E-score": -0.245}
{"sequence": "CAACCCAC", "PBM E-score": -0.00925}
{"sequence": "CCCTGTAC", "PBM E-score": -0.228}
{"sequence": "ATTTCTTG", "PBM E-score": 0.0359}
{"sequence": "GACGCAAC", "PBM E-score": 0.0987}
{"sequence": "AAGTCCAT", "PBM E-score": -0.0494}
{"sequence": "ACAAGGTC", "PBM E-score": -0.128}
{"sequence": "ATCCATCC", "PBM E-score": 0.223}
{"sequence": "GTAAGCCA", "PBM E-score": -0.214}
{"sequence": "CATCATGC", "PBM E-score": -0.207}
{"sequence": "AAGCGGAA", "PBM E-score": 0.326}
{"sequence": "GCACTTCA", "PBM E-score": 0.102}
{"sequence": "TCTGAAAA", "PBM E-score": -0.122}
{"sequence": "CATATAAA", "PBM E-score": -0.147}
{"sequence": "GAGCCACC", "PBM E-score": -0.0391}
{"sequence": "ATGCAAAA", "PBM E-score": -0.0936}
{"sequence": "CATCACCG", "PBM E-score": 0.0956}
{"sequence": "CGGATCTC", "PBM E-score": 0.365}
{"sequence": "CCTCGAAC", "PBM E-score": -0.204}
{"sequence": "CTCTCGGA", "PBM E-score": 0.405}
{"sequence": "CATTATGC", "PBM E-score": -0.0323}
{"sequence": "CCCATATA", "PBM E-score": -0.024}
{"sequence": "GGGACACA", "PBM E-score": -0.0511}
{"sequence": "AGTGAAAC", "PBM E-score": -0.0278}
{"sequence": "CCCATCCG", "PBM E-score": 0.0827}
{"sequence": "ATATTCTC", "PBM E-score": 0.00864}
{"sequence": "CATATGAC", "PBM E-score": -0.168}
{"sequence": "GAGTTACA", "PBM E-score": 0.111}
{"sequence": "AAGATACT", "PBM E-score": 0.0493}
{"sequence": "AATGTGGC", "PBM E-score": -0.019}
{"sequence": "ACCCTCAG", "PBM E-score": -0.126}
{"sequence": "GCGAGCGA", "PBM E-score": 0.0207}
{"sequence": "ATCGCATG", "PBM E-score": -0.0936}
{"sequence": "ATAATGTG", "PBM E-score": -0.159}
{"sequence": "CGTATAAG", "PBM E-score": -0.0319}
{"sequence": "ATCTGACG", "PBM E-score": -0.134}
{"sequence": "ACGACAGC", "PBM E-score": -0.241}
{"sequence": "AATAGATT", "PBM E-score": -0.0366}
{"sequence": "CGATTAAG", "PBM E-score": 0.0117}
{"sequence": "CACCCTAG", "PBM E-score": -0.219}
{"sequence": "ATCCAGAC", "PBM E-score": 0.085}
{"sequence": "GCACCAAA", "PBM E-score": -0.0887}
{"sequence": "CTTAGTAC", "PBM E-score": -0.159}
{"sequence": "AGAGGTGA", "PBM E-score": -0.22}
{"sequence": "AGTTAATC", "PBM E-score": -0.0457}
{"sequence": "AGTCAACG", "PBM E-score": -0.258}
{"sequence": "ATGGAACG", "PBM E-score": -0.0457}
{"sequence": "GAAAACAC", "PBM E-score": 0.204}
{"sequence": "AGTTGCGG", "PBM E-score": 0.242}
{"sequence": "ACGCCCTA", "PBM E-score": -0.0143}
{"sequence": "AGCCGTGA", "PBM E-score": 0.0633}
{"sequence": "ACAGTTAA", "PBM E-score": -0.065}
{"sequence": "CAACGAAA", "PBM E-score": -0.0107}
{"sequence": "ACGGGAGG", "PBM E-score": 0.0879}
{"sequence": "GTTAATCA", "PBM E-score": -0.0638}
{"sequence": "ATTAGGAC", "PBM E-score": -0.212}
{"sequence": "TCTTACAA", "PBM E-score": -0.172}
{"sequence": "GTGTTCCA", "PBM E-score": -0.0694}
{"sequence": "CCAAGTTC", "PBM E-score": 0.0338}
{"sequence": "CGGCCCTA", "PBM E-score": 0.169}
{"sequence": "GCACCAGC", "PBM E-score": -0.144}
{"sequence": "GCCGCTCA", "PBM E-score": 0.103}
{"sequence": "GTAAACTA", "PBM E-score": 0.0138}
{"sequence": "AACACTTC", "PBM E-score": -0.105}
{"sequence": "ACCACCCT", "PBM E-score": -0.22}
{"sequence": "ATCGGCAC", "PBM E-score": 0.252}
{"sequence": "CTATGGGC", "PBM E-score": -0.181}
{"sequence": "CCCCGCGC", "PBM E-score": 0.317}
{"sequence": "GCCCGGGA", "PBM E-score": 0.341}
{"sequence": "CACGTATG", "PBM E-score": -0.177}
{"sequence": "CGGAATCA", "PBM E-score": 0.39}
{"sequence": "GGCCTTCA", "PBM E-score": 0.0658}
{"sequence": "AAATGGAG", "PBM E-score": 0.0932}
{"sequence": "CGTACCGC", "PBM E-score": 0.0934}
{"sequence": "ACACGGGA", "PBM E-score": 0.129}
{"sequence": "AACCGACA", "PBM E-score": -0.0194}
{"sequence": "CAATTTGG", "PBM E-score": -0.0927}
{"sequence": "GCTTGTCA", "PBM E-score": 0.00249}
{"sequence": "CTCCCACA", "PBM E-score": 0.00574}
{"sequence": "AGCCTACC", "PBM E-score": -0.0995}
{"sequence": "CGTGTCGA", "PBM E-score": -0.133}
{"sequence": "GCAATAAA", "PBM E-score": 0.0137}
{"sequence": "AATATACG", "PBM E-score": -0.111}
{"sequence": "CATAACTC", "PBM E-score": -0.0582}
{"sequence": "CAGGCAAC", "PBM E-score": -0.22}
{"sequence": "ATAAATTC", "PBM E-score": -0.0248}
{"sequence": "AACAAGGT", "PBM E-score": -0.0398}
{"sequence": "AAGTCTAC", "PBM E-score": -0.137}
{"sequence": "CCGCACTC", "PBM E-score": 0.229}
{"sequence": "CAGGCTAC", "PBM E-score": -0.191}
{"sequence": "CGCATATC", "PBM E-score": 0.0684}
{"sequence": "CTGGTCAC", "PBM E-score": -0.279}
{"sequence": "GCCCCAGA", "PBM E-score": 0.0596}
{"sequence": "CCACACCC", "PBM E-score": 0.0395}
{"sequence": "CATGATCG", "PBM E-score": -0.0501}
{"sequence": "TACTCCCA", "PBM E-score": -0.0458}
{"sequence": "ACCGGACA", "PBM E-score": 0.401}
{"sequence": "CGGCTAGA", "PBM E-score": 0.0973}
{"sequence": "CAAAGCCC", "PBM E-score": 0.15}
{"sequence": "AGGAGTTG", "PBM E-score": 0.00225}
{"sequence": "ACGTGGAC", "PBM E-score": -0.0384}
{"sequence": "AAGCATAT", "PBM E-score": -0.014}
{"sequence": "AACCTTCA", "PBM E-score": -0.245}
{"sequence": "AATTAGCT", "PBM E-score": 0.0507}
{"sequence": "GCCCCCCC", "PBM E-score": -0.289}
{"sequence": "CTGCGGAA", "PBM E-score": 0.214}
{"sequence": "AGCGCGAA", "PBM E-score": 0.0776}
{"sequence": "GATATTCA", "PBM E-score": 0.0432}
{"sequence": "TCCTTGAA", "PBM E-score": -0.227}
{"sequence": "AGGGTTCG", "PBM E-score": -0.0349}
{"sequence": "TATTGACA", "PBM E-score": -0.141}
{"sequence": "ACGGATAT", "PBM E-score": 0.305}
{"sequence": "CCAGGTCC", "PBM E-score": 0.0683}
{"sequence": "CTCTCACC", "PBM E-score": -0.104}
{"sequence": "ACAGCCCT", "PBM E-score": -0.133}
{"sequence": "CGACATCG", "PBM E-score": 0.0791}
{"sequence": "GTTATCTA", "PBM E-score": -0.0157}
{"sequence": "GACCAGCA", "PBM E-score": -0.00964}
{"sequence": "AACACCGT", "PBM E-score": 0.178}
{"sequence": "CCCTCTTA", "PBM E-score": -0.162}
{"sequence": "AAGGCTTG", "PBM E-score": -0.229}
{"sequence": "CAACGTAC", "PBM E-score": -0.339}
{"sequence": "CGATAGCG", "PBM E-score": 0.187}
{"sequence": "CCAGCGGA", "PBM E-score": 0.342}
{"sequence": "ACTAAATA", "PBM E-score": -0.0557}
{"sequence": "ACGCATGC", "PBM E-score": -0.0181}
{"sequence": "CTATAATA", "PBM E-score": -0.0183}
{"sequence": "AGGGGTAT", "PBM E-score": -0.0462}
{"sequence": "CAAGCATA", "PBM E-score": -0.136}
{"sequence": "GTCGCGGA", "PBM E-score": 0.294}
{"sequence": "AACATAGC", "PBM E-score": -0.0617}
{"sequence": "CACATCCA", "PBM E-score": -0.178}
{"sequence": "GCATAGGC", "PBM E-score": -0.265}
{"sequence": "ACAACACT", "PBM E-score": -0.052}
{"sequence": "CCAAATAC", "PBM E-score": -0.107}
{"sequence": "ACGCCGTA", "PBM E-score": 0.0546}
{"sequence": "GGATGTTA", "PBM E-score": 0.145}
{"sequence": "CTCGGAAA", "PBM E-score": 0.374}
{"sequence": "CTTGCAGA", "PBM E-score": -0.155}
{"sequence": "ATACAGAA", "PBM E-score": 0.0316}
{"sequence": "CATGGCGG", "PBM E-score": 0.145}
{"sequence": "CCGTGGCG", "PBM E-score": 0.209}
{"sequence": "CCTTAAAG", "PBM E-score": -0.182}
{"sequence": "AGCTGGTG", "PBM E-score": -0.109}
{"sequence": "CATTTAGG", "PBM E-score": -0.0981}
{"sequence": "GCTTCGGA", "PBM E-score": 0.367}
{"sequence": "GATTATGA", "PBM E-score": -0.0204}
{"sequence": "CAAGTTCA", "PBM E-score": 0.106}
{"sequence": "CCGTTCGA", "PBM E-score": 0.0394}
{"sequence": "CGCGGCTC", "PBM E-score": 0.276}
{"sequence": "CTGCAGAA", "PBM E-score": 0.0638}
{"sequence": "CAGATGCA", "PBM E-score": -0.238}
{"sequence": "AACCACGA", "PBM E-score": -0.143}
{"sequence": "CATAACCC", "PBM E-score": -0.0526}
{"sequence": "CTTGCAAA", "PBM E-score": 0.034}
{"sequence": "GAATTGTA", "PBM E-score": -0.0727}
{"sequence": "AGAAACAA", "PBM E-score": 0.00831}
{"sequence": "ACATTAAG", "PBM E-score": -0.305}
{"sequence": "CCCGCCGA", "PBM E-score": 0.334}
{"sequence": "ACCGGTTA", "PBM E-score": 0.293}
{"sequence": "GTTGGGTA", "PBM E-score": -0.168}
{"sequence": "GGAGGCTA", "PBM E-score": 0.106}
{"sequence": "CCCAAGGC", "PBM E-score": 0.0152}
